# Some of the results follow. Sequences were assembled here from the parent chain. Inactive controls read about 0.05.
# B1: TEV protease; numbered along this chain (parent)
# chain: MGESLFKGPRDYNPISSSICHLTNESDGHTTSLYGIGFGPFIITNKHLFRRNNGTLVVQSLHGVFKVKDTTTLQQHLVDGRDMIIIRMPKDFPPFPQKLKFREPQREERICLVTTNFQTKSMSSMVSDTSCTFPSGDGIFWKHWIQTKDGQCGSPLVSTRDGFIVGIHSASNFTNTNNYFTSVPKNFMELLTNQEAQQWVSGWRLNADSVLWGGHKVFMVKPEEPFQPVKEATQL
# Variants of: B1
# Experiment: raw area under fraction-flipped curve 0-4 h after induction (AUC4h, not background-subtracted), DNA-recorder readout of cleavage of the substrate (dimensionless); higher = more cleavage of the substrate by the protease variant
# Conditions: temperature: 34 °C; time window: 0-4 h after rhamnose induction
# Description: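 In vivo DNA recorder in E. coli TOP10(DE3) ΔrhaA at 34 °C. Each TEVp single-site mutant (parent TEVp 0) is paired with a single-site variant of the 7-mer TEVs (canonical ENLYFQ|S). The substrate sits between flexible linkers in a Bxb1-sfGFP-TEVs-SsrA fusion, so cleavage stabilises Bxb1 and speeds flipping of a recombination array, read by NGS. The value is the raw area under the fraction-flipped curve over 0-4 h after rhamnose induction (AUC4h), with ≥20 reads per time point. It is not background-subtracted; inactive controls average about 0.047.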
# 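Further: Bxb1 expression induced with 0.2% (w/v) L-rhamnose at OD600 near 0.5, cultures sampled hourly, flipped fraction per protease–substrate barcode pair counted by paired-end Illumina sequencing.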
Variant,area with substrate EALYFQS,area with substrate EDLYFQS,area with substrate EELYFQS,area with substrate EFLYFQS,area with substrate EGLYFQS,area with substrate EHLYFQS,area with substrate EILYFQS,area with substrate EKLYFQS,area with substrate ELLYFQS,area with substrate EMLYFQS,area with substrate EPLYFQS,area with substrate EQLYFQS,area with substrate ERLYFQS,area with substrate ESLYFQS,area with substrate EVLYFQS,area with substrate EYLYFQS,area with substrate ECLYFQS,area with substrate ETLYFQS,area with substrate EWLYFQS
MGESLFKGPRDYNPISSSICHLTNESDGHTTSLYGIGFGPFIITNKHLFRRNNGTLVVQSLHGVFKVKDTTTLQQHLVDGRDMIIIRMPKDFPPFPQKLKFREPQREERICLTTTNFQTKSMSSMVSDTSCTFPSGDGIFWKHWIQTKDGQCGSPLVSTRDGFIVGIHSASNFTNTNNYFTSVPKNFMELLTNQEAQQWVSGWRLNADSVLWGGHKVFMVKPEEPFQPVKEATQL [V113T],0.0882,0.105,0.0597,0.0793,0.0843,0.0742,0.0702,0.0764,0.0786,0.0767,0.0911,0.0793,0.0873,0.0852,0.073,0.0836,–,–,–
MGESLFKGPRDYNPISSSICHLTNESDGHTTSLYGIGFGPFIITNKHLFRRNNGTLVVQSLHGVFKVKDTTTLQQHLVDGRDMIIIRMPKDFPPFPQKLKFREPQREERICLVTTNFQTKSMVSMVSDTSCTFPSGDGIFWKHWIQTKDGQCGSPLVSTRDGFIVGIHSASNFTNTNNYFTSVPKNFMELLTNQEAQQWVSGWRLNADSVLWGGHKVFMVKPEEPFQPVKEATQL [S123V],0.119,–,–,–,–,0.137,0.119,–,0.055,0.0697,0.117,–,0.107,0.0882,0.115,0.0685,0.111,0.131,–
MGESLFKGPRDYNPISSSICHLTNESDGHTTSLYGIGFGPFIITNKHLFRRNNGTLVVQSLHGVFKVKDTTTLQQHLVDGRDMIIIRMPKDFPPFPQKLKFREPQREEHICLVTTNFQTKSMSSMVSDTSCTFPSGDGIFWKHWIQTKDGQCGSPLVSTRDGFIVGIHSASNFTNTNNYFTSVPKNFMELLTNQEAQQWVSGWRLNADSVLWGGHKVFMVKPEEPFQPVKEATQL [R109H],0.127,–,–,0.0917,0.0821,–,–,0.0951,–,–,–,0.0996,0.122,0.101,0.0905,–,0.117,–,–
MGESLFKGPRDYNPISSSICHLTNESDGHTTSLYGIGFGPFIITNKHLFRRNNGTLVVQSLHGVFKVKDTTTLQQHLVDGRDMIIIRMPKDFPPFPQKLKFREPQREERICLVTTEFQTKSMSSMVSDTSCTFPSGDGIFWKHWIQTKDGQCGSPLVSTRDGFIVGIHSASNFTNTNNYFTSVPKNFMELLTNQEAQQWVSGWRLNADSVLWGGHKVFMVKPEEPFQPVKEATQL [N116E],0.0805,0.123,0.114,–,0.106,–,0.0789,0.0911,0.104,0.11,0.097,0.132,0.108,0.0983,0.1,0.0925,0.11,–,0.0863
MGESLFKGPRDYNPISSSICHLTNESDGHTTSLYGIGFGPFIITNKHLFRRNNGTLVVQSLHGVFKVKDTTTLQQHLVDGRDMIIIRMPKDFPPFPQKLKFREPQREERICLVTTNFQHKSMSSMVSDTSCTFPSGDGIFWKHWIQTKDGQCGSPLVSTRDGFIVGIHSASNFTNTNNYFTSVPKNFMELLTNQEAQQWVSGWRLNADSVLWGGHKVFMVKPEEPFQPVKEATQL [T119H],0.211,–,–,–,–,–,–,0.127,–,0.165,–,–,–,–,0.0896,–,0.0974,0.101,–

# — the supplement of paper PMC12217912
